Results as given in the RNAGym collection of RNA variant scans (doi:10.1093/nar/gkz1192).
The source gives no read counts; variants with many changes may rest on few reads.

B1: CPEB3 Ribozyme (parent)
chain: UAACAGGGGGCCACAGCAGAAGCGUUCACGUCGCAGCCCCUGUCAGAUUCUGGUGAAUCUGCGAAUUCUGCUGUAUAUCUC

Variants of: B1
Assay: self-cleavage, relative activity (ratio to wild type); higher = more cleavage; in vitro, sequencing
Method in brief: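 Libraries of CPEB3 self-cleaving ribozyme mutants came from rounds of error-prone PCR and carried barcodes, which DNA sequencing matched to variants. In vitro transcription used T7 RNA polymerase at 37°C for 5 hours, with a further 15 min in DNase I before EDTA stopped the reaction; the ribozymes cleaved during both steps. The RNA was reverse transcribed with template switching and sequenced on Illumina. Relative activity is the cleaved/total read fraction of a variant divided by that of the unmutated ribozyme, averaged over three batches with at least 5 reads.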

Variant	self-cleavage
A20U C40G U66C U69C	0.19
A20U C40U G52A	0.42
A20U C40U G63A	0.31
A20U C40U U80C	0.32
A20U C50U A64G	0.13
A20U C62A U69G G73A	0.08
A20U C62U U72C A75G	0.13
A20U G22A A35U	0.11
A20U G22A A47G	0.06
A20U G22A C39A U60A	0.1
A20U G22A U51A U54C U60C U80C	0.08
A20U G22C U25C U48C A64U U78C	0.04
A20U G22U A65U U74C A75U	0.12
A20U G22U U26A U80C	0.21
A20U G24A A28G U43C U66C	0.11
A20U G24A C29U G42A	0.13
A20U G24A U25C G33A U49C	0.14
A20U G24A U26C U43C U49C U69C	0.13
A20U G24A U31C A64C	0.08
A20U G24A U41A U69C	0.1
A20U G24A U41C A56U	0.07

Variant	self-cleavage
A20U G24A U54C A65G	0.12
A20U G30A A45G U66C A75G	0.06
A20U G30A A64G	0.18
A20U G30A U31A U74A	0.16
A20U G30C G52C	0.08
A20U G30C U43C U69C U72G U78C	0.05
A20U G30U U31C U49C U69A	0.17
A20U G33A A35C	0.14
A20U G33A A35C A64U	0.15
A20U G33A C62U	0.05
A20U G33A U41A	0.11
A20U G33U A35U U60A U69A A77U	0.07
A20U G33U U66C	0.04
A20U G33U U67C U72A	0.09
A20U G36C A45C G52U U80A	0.04
A20U G36C U41C U49C U80C	0.26
A20U G42A A77U	0.16
A20U G42A C59G A77G	0.13
A20U G46A U69C	0.16
A20U G46C A64U	0.08
A20U G46U U48A A56G U67C U69G	0.19

Variant	self-cleavage
A20U G52A U76A	0.34
A20U G52U U54G A57G	0.18
A20U G55A U74A U78C	0.18
A20U G55U U60G U69C	0.08
A20U G63A U67A U80C	1.1
A20U U25A G33A A65G	0.08
A20U U25A G46A U49C A64U	0.05
A20U U25A G63C	0.18
A20U U25A U31A	0.15
A20U U25A U41C	0.27
A20U U25A U43A A47G U60C G63C	0.05
A20U U25A U54A	0.05
A20U U25A U67A	0.24
A20U U25C A28U G36A U72C	0.06
A20U U25C A28U U66C U80A	0.07
A20U U25C A35G C50U	0.25
A20U U25C A35U U49A U67C	0.1
A20U U25C A45G	0.29
A20U U25C A45U U48C A64U U78C	0.07
A20U U25C A45U U60G A64G	0.04
A20U U25C A56U A57G	0.12

Variant	self-cleavage
A20U U25C A65G	0.27
A20U U25C A77G	0.08
A20U U25C A77U	0.21
A20U U25C C38A U54A U69C U78C	0.03
A20U U25C G33A	0.33
A20U U25C G61C	0.19
A20U U25C U31A U49C	0.18
A20U U25C U41C A45C C62U	0.08
A20U U25C U41C A56G U72C	0.06
A20U U25C U43C C59U U67C U80C	0.08
A20U U25C U49A G61A A65G	0.1
A20U U25C U51C U54C	0.1
A20U U25C U67C	0.06
A20U U25C U76C	0.28
A20U U26A A35C U41A A64U	0.14
A20U U26A A35U U58C U66C	0.07
A20U U26A A45G	0.11
A20U U26A A45G U66A C68U	0.23
A20U U26A A45U U67C	0.1
A20U U26A C29U A35G A45U A64U	0.08
